{
  "source": "paper PMC4336329",
  "about": "(PLoS ONE, 2015)",
  "note": "Among all 310,000 compounds or so, about 2,200 (0.71%) showed an effect of 50% or more. Effects have a minus sign here. Some of the results follow.",
  "data": [
    {"target": "human ether-à-go-go-related gene (hERG) potassium channel (human, UniProt Q12809)", "sequence (Q12809 whole entry, looked up)": "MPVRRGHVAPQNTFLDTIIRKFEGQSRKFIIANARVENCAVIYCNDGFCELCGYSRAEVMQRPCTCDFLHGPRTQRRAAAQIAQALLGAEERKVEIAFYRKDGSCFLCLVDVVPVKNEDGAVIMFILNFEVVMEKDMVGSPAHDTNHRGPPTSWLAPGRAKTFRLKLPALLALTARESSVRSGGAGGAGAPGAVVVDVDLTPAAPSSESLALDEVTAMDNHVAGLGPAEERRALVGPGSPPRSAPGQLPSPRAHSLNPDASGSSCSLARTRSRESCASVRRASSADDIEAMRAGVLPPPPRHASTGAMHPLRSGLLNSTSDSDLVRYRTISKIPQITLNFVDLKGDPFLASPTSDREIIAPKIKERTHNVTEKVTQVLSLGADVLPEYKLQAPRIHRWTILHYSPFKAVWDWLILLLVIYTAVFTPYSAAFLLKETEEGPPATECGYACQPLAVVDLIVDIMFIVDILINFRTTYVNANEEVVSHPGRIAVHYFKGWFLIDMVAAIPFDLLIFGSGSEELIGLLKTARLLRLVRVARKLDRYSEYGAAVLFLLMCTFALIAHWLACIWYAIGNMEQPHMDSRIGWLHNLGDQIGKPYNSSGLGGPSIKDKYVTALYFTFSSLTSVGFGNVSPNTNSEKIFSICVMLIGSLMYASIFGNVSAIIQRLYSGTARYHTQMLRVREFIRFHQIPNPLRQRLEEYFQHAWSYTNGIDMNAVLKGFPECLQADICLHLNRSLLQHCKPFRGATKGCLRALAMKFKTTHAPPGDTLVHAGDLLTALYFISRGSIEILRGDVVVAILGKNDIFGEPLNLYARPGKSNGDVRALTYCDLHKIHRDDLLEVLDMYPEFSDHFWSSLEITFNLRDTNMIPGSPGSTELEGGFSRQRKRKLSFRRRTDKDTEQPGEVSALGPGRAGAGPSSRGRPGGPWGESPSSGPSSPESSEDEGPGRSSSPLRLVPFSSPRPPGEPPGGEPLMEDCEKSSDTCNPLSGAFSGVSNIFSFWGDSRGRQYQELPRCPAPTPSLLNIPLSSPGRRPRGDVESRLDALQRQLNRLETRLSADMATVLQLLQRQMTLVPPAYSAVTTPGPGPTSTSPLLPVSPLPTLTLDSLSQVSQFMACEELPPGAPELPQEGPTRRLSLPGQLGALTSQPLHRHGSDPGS", "test": "primary screen, population patch clamp on CHO cells stably expressing hERG", "units": {"hERG current change (%, negative = inhibition) at 1uM": "%"}, "values": [
      {"compound": "COc1ccccc1C(=O)Nc1ccc(C(=O)N2CCCC2)cc1", "hERG current change (%, negative = inhibition) at 1uM": -0.807},
      {"compound": "CCc1ccc2oc(-c3ccc(NC(C)=O)cc3)nc2c1", "hERG current change (%, negative = inhibition) at 1uM": 10.8},
      {"compound": "CCOCCn1c2ccccc2c2nc3ccccc3nc21", "hERG current change (%, negative = inhibition) at 1uM": 9.09},
      {"compound": "Cc1nn(-c2cccc(Cl)c2)c2nc(-c3ccncc3)cc(C(=O)N3CCOCC3)c12", "hERG current change (%, negative = inhibition) at 1uM": 7.13},
      {"compound": "CCN(CC)c1ccc(CNc2nc3ccccc3n2C(C)C)cc1", "hERG current change (%, negative = inhibition) at 1uM": 4.8},
      {"compound": "Cc1cccc(C)c1NC(=O)CN(C)C(=O)c1cccc(S(=O)(=O)N2CCN(c3ccccc3)CC2)c1", "hERG current change (%, negative = inhibition) at 1uM": -4.32},
      {"compound": "Cl.Clc1ccc(Cn2c(CN3CCCC3)nc3ccccc32)cc1", "hERG current change (%, negative = inhibition) at 1uM": -39.4},
      {"compound": "C/C=C/C(=O)OCC(=O)Nc1cccc(Br)c1", "hERG current change (%, negative = inhibition) at 1uM": 20.8},
      {"compound": "COC(=O)Cc1c(O)ccn(CCc2ccc(S(N)(=O)=O)cc2)c1=O", "hERG current change (%, negative = inhibition) at 1uM": 4.32},
      {"compound": "CCOC(=O)C1(O)CSc2nc3sc(C(=O)O)c(C)c3c(=O)n21", "note": "(centres unmarked)", "hERG current change (%, negative = inhibition) at 1uM": 6.5},
      {"compound": "O=C(O)c1ccccc1-c1ccccc1C(=O)NCc1cccc(C(F)(F)F)c1", "hERG current change (%, negative = inhibition) at 1uM": 1.18},
      {"compound": "O=C(CCc1nc(-c2ccc(Cl)cc2)no1)NCC1CCCO1", "note": "(centres unmarked)", "hERG current change (%, negative = inhibition) at 1uM": 14.3},
      {"compound": "O=S(=O)(Nc1nc(SCc2ccc(Cl)cc2)n[nH]1)c1ccccc1", "hERG current change (%, negative = inhibition) at 1uM": 11.2},
      {"compound": "CCCCOCP(=O)(CCCC)COCCCC", "hERG current change (%, negative = inhibition) at 1uM": 8.53},
      {"compound": "Cc1cc(C)n(C(=O)c2ccc([N+](=O)[O-])cc2[N+](=O)[O-])n1", "hERG current change (%, negative = inhibition) at 1uM": 8.62},
      {"compound": "O=C(Nc1ccccc1)c1cccc(C(=O)Nc2ccccc2)n1", "hERG current change (%, negative = inhibition) at 1uM": 15.6},
      {"compound": "C=CCSc1cc(C)nc2c(-c3ccccc3)c(C)nn12", "hERG current change (%, negative = inhibition) at 1uM": 9.34},
      {"compound": "CCn1c(O)c(/C=N/N=C/c2ccc(OC)cc2)c2cc(C3=NNC(=O)CC3)ccc21", "hERG current change (%, negative = inhibition) at 1uM": 10.4},
      {"compound": "Cc1cc2oc(=O)cc(CN3CCc4ccccc43)c2cc1Cl", "hERG current change (%, negative = inhibition) at 1uM": 11.9},
      {"compound": "Cc1ccc(NC(=O)CSc2nc3ccc(Nc4nc(N5CCOCC5)nc(N5CCOCC5)n4)cc3s2)cc1", "hERG current change (%, negative = inhibition) at 1uM": 13.6},
      {"compound": "COc1cc(NC(=O)c2ccc(Br)o2)ccc1NC(=O)c1ccccc1Cl", "hERG current change (%, negative = inhibition) at 1uM": 3.98},
      {"compound": "COc1ccc(C(=O)NC(=S)Nc2ccc(N3CCN(C(C)=O)CC3)cc2)cc1[N+](=O)[O-]", "hERG current change (%, negative = inhibition) at 1uM": 13.2},
      {"compound": "COc1ccc(CNc2oc(COc3ccc(Cl)cc3)nc2C#N)cc1", "hERG current change (%, negative = inhibition) at 1uM": 10.1},
      {"compound": "COc1ccccc1NC(=O)CCNC(=O)Cn1ccc2ccccc2c1=O", "hERG current change (%, negative = inhibition) at 1uM": 10.5},
      {"compound": "CCCCCCn1c(O)c(C=NC2CCN(Cc3ccccc3)CC2)c(=O)[nH]c1=O", "hERG current change (%, negative = inhibition) at 1uM": 2.55},
      {"compound": "CCOC(=O)C(NC(C)=O)(Nc1ccc(S(N)(=O)=O)cc1)C(F)(F)F", "note": "(centres unmarked)", "hERG current change (%, negative = inhibition) at 1uM": 14.4},
      {"compound": "CCOC(=O)N1CCN(c2nc(N(c3ccccc3)c3ccccc3)nc(-n3ccnc3)n2)CC1", "hERG current change (%, negative = inhibition) at 1uM": 10.5},
      {"compound": "CCOC(=O)Cc1c(C)c2c(O)cc(O)cc2oc1=O", "hERG current change (%, negative = inhibition) at 1uM": -8.39},
      {"compound": "Cc1cc(O)ccc1Nc1nc(-c2cccnc2)cs1", "hERG current change (%, negative = inhibition) at 1uM": 7.35},
      {"compound": "CCOc1ccc(N2C(=O)S/C(=C\\c3cccn3C)C2=O)cc1", "hERG current change (%, negative = inhibition) at 1uM": 9.14},
      {"compound": "O=C(COC(=O)c1cccc(Cl)c1)NC1CCS(=O)(=O)C1", "note": "(centres unmarked)", "hERG current change (%, negative = inhibition) at 1uM": -0.0709},
      {"compound": "O=[N+]([O-])c1ccc(F)cc1OCc1cccc(S(=O)(=O)N2CCOCC2)c1", "hERG current change (%, negative = inhibition) at 1uM": -7.36},
      {"compound": "Cc1ccc(N2CN(Cc3cccnc3)CNC2=S)c(C)c1", "hERG current change (%, negative = inhibition) at 1uM": 2.21},
      {"compound": "NC1=C(c2ccccc2)C(=O)NC1=O", "hERG current change (%, negative = inhibition) at 1uM": 14.5},
      {"compound": "COc1cc([N+](=O)[O-])ccc1N=Nc1c(N)[nH]n(-c2ccccc2)c1=O", "hERG current change (%, negative = inhibition) at 1uM": 7.05},
      {"compound": "COc1ccc(-c2nnc(N)s2)cc1", "hERG current change (%, negative = inhibition) at 1uM": 11.5},
      {"compound": "COc1ccc2oc(=O)c(/C(C)=N/Nc3nc(-c4cc(C)ccc4C)cs3)cc2c1", "hERG current change (%, negative = inhibition) at 1uM": 10.8},
      {"compound": "O=C(Cc1ccccc1)N1CCN(Cc2cccc(Cl)c2)CC1.O=C(O)C(=O)O", "hERG current change (%, negative = inhibition) at 1uM": 8.53},
      {"compound": "Cc1ccsc1C(=O)OCC(=O)NCC1CCCO1", "note": "(centres unmarked)", "hERG current change (%, negative = inhibition) at 1uM": 3.16},
      {"compound": "CN(C)c1ccc(/C=C2\\CC3C4CC=C5CC(O)CCC5(C)C4CCC3(C)C2=O)cc1", "note": "(centres unmarked)", "hERG current change (%, negative = inhibition) at 1uM": 9.15},
      {"compound": "Cc1cccc(NC(=O)CSCc2cc(=O)n3nc(C4CC4)sc3n2)c1", "hERG current change (%, negative = inhibition) at 1uM": 11.8},
      {"compound": "CC1CCCCC1N1CN=C(Nc2nc3ccccc3s2)NC1", "note": "(centres unmarked)", "hERG current change (%, negative = inhibition) at 1uM": -1.41},
      {"compound": "COc1ccc(C2CC(c3ccc(Cl)cc3)n3nc(N)nc3N2)cc1", "note": "(centres unmarked)", "hERG current change (%, negative = inhibition) at 1uM": 2.81},
      {"compound": "O=C1c2sc3nc4ccccc4n3c2C(=O)N1c1ccccc1Cl", "hERG current change (%, negative = inhibition) at 1uM": 12.2},
      {"compound": "COc1ccc(S(=O)(=O)Nc2ccc3c(c2)OCO3)cc1C(=O)O", "hERG current change (%, negative = inhibition) at 1uM": 11.8},
      {"compound": "Cn1c(COc2ccccc2)nnc1SCc1nc2ccccc2[nH]1", "hERG current change (%, negative = inhibition) at 1uM": 9.91},
      {"compound": "CCC(C)c1ccccc1N1CC(C(=O)N2CCN(S(=O)(=O)c3ccc(F)cc3)CC2)CC1=O", "note": "(centres unmarked)", "hERG current change (%, negative = inhibition) at 1uM": 5.43},
      {"compound": "CCn1cc(C(=O)O)c(=O)c2cc(F)c(N3CCN(C(=S)NC(=O)c4ccc(Br)cc4)CC3)cc21", "hERG current change (%, negative = inhibition) at 1uM": 10.8},
      {"compound": "N/C(Cn1cncn1)=N\\OC(=O)c1ccc(Cl)cc1", "hERG current change (%, negative = inhibition) at 1uM": 1.86},
      {"compound": "O=C(NN1CCOCC1)c1ccccc1", "hERG current change (%, negative = inhibition) at 1uM": -6.16},
      {"compound": "Cc1onc(-c2c(Cl)cccc2Cl)c1C(=O)NCCCN1CCOCC1", "hERG current change (%, negative = inhibition) at 1uM": 4.43},
      {"compound": "CCOC(=O)c1ccc(NC(=O)C(=O)NCc2ccc(/C=C(/C#N)C(=O)NCCOC)o2)cc1", "hERG current change (%, negative = inhibition) at 1uM": 2.09},
      {"compound": "Cc1ccnc(SCC(N)=O)n1", "hERG current change (%, negative = inhibition) at 1uM": 4.83},
      {"compound": "COc1cc2c(cc1OC)CN(CC(=O)NC(=O)NC1CCCCC1)CC2", "hERG current change (%, negative = inhibition) at 1uM": 6.55},
      {"compound": "O=C(CSC1=NC(=O)C(Cc2ccccc2)C(=O)N1)Nc1ncc(Br)cc1Br", "note": "(centres unmarked)", "hERG current change (%, negative = inhibition) at 1uM": 15.1},
      {"compound": "COc1ccccc1C(CNC(=O)c1cccc(S(=O)(=O)Nc2ccc(C)cc2)c1)N(C)C", "note": "(centres unmarked)", "hERG current change (%, negative = inhibition) at 1uM": 0.197}
    ]}
  ]
}
